Reference: patent US20180318300A1, “TREATMENT OF AUTOIMMUNE DISEASE” (MingSight Pharmaceuticals, Inc., priority 2015, published 2018)

Test system: type II collagen arthritis in mice
Details: BID; for Change in Body Weight from Day 17 (g): Days 18-35; for Change in Body Weight from Day 17 (g) / Paw Score AUC: mean (SE); for Paw Score AUC: AUC Study Days 18-35; for Percent Incidence: disease incidence at study termination

Row | SMILES | Change in Body Weight from Day 17 (g) (60 mg/kg PO) | Paw Score AUC (60 mg/kg PO) | Percent Incidence (60 mg/kg PO) [%] | Change in Body Weight from Day 17 (g) (90 mg/kg PO) | Paw Score AUC (90 mg/kg PO) | Percent Incidence (90 mg/kg PO) [%] | Reduction of arthritis scores expressed as area under the curve (AUC) compared to Vehicle Controls (120 mg/kg PO) [%] | Change in Body Weight from Day 17 (g) (120 mg/kg PO) | Paw Score AUC (120 mg/kg PO) | Disease-induced body weight loss (percent change from baseline) compared to Vehicle Controls (120 mg/kg PO, Days 20 and 34) | Percent Incidence (120 mg/kg PO) [%] | Clinical arthritis scores measured daily compared to Vehicle Controls (120 mg/kg PO, p<0.05 on Days 27-35) | Change in Body Weight from Day 17 (g) (0.1 mg/kg PO) | Paw Score AUC (0.1 mg/kg PO) | Percent Incidence (0.1 mg/kg PO) [%] | Percent Incidence (0.1 mg/kg PO, listed as Dex) [%] | Reduction of arthritis scores expressed as area under the curve (AUC) compared to Vehicle Controls (Dex 0.1 mg/kg PO) [%]
1 | Cc1ncc(F)c(Nc2n[nH]c3c2CN(C(=O)N2C[C@@H](C)N(CC4CCOCC4)C[C@@H]2C)C3(C)C)n1 [compound A, 5-{[(2S,5R)-2,5-dimethyl-4-(tetrahydro-2H-pyran-4-ylmethyl)piperazin-1-yl]carbonyl}-N-(5-fluoro-2-methylpyrimidin-4-yl)-6,6-dimethyl-1,4,5,6-tetrahydropyrrolo[3,4-c]pyrazol-3-amine] | −1.55 (0.48) g | 22.91 (2.82) | 100 | −0.86 (0.52) g | 9.85 (2.37) | 92 | 72 | −0.25 (0.26) g | *5.74 (1.41) | inhibited | 83 | reduced toward normal | – | – | – | – | –
2 | C[C@@H]1C[C@H]2[C@@H]3CCC4=CC(=O)C=C[C@]4(C)[C@@]3(F)[C@@H](O)C[C@]2(C)[C@@]1(O)C(=O)CO [Dexamethasone, reference compound] | – | – | – | – | – | – | – | – | – | – | – | – | −2.44 (0.68) g | *0.00 (0.00) | 0 | 0 | 100

Read-outs that look alike come from different tables or passages of the source.
